# Data as given in publication PMC5333991.
# Substrate: O=C1OC2(c3ccc(OCOCc4ccccc4)cc3Oc3cc(OCOCc4ccccc4)ccc32)c2ccccc21
# Experiment: purified protein
# Type: biochemical, Homo sapiens
# Conditions: NADP+ with regeneration system
protein,measurement,value
CYP3A4 (Homo sapiens) (protein) ALIPDLAMETWLLLAVSLVLLYLYGTHSHGLFKKLGIPGPTPLPFLGNILSYHKGFCMFDMECHKKYGKVWGFYDGQQPVLAITDPDMIKTVLVKECYSVFTNRRPFGPVGFMKSAISIAEDEEWKRLRSLLSPTFTSGKLKEMVPIIAQYGDVLVRNLRREAETGKPVTLKDVFGAYSMDVITSTSFGVNIDSLNNPQDPFVENTKKLLRFDFLDPFFLSITVFPFLIPILEVLNICVFPREVTNFLRKSVKRMKESRLEDTQKHRVDFLQLMIDSQNSKETESHKALSDLELVAQSIIFIFAGYETTSSVLSFIMYELATHPDVQQKLQEEIDAVLPNKAPPTYDTVLQMEYLDMVVNETLRLFPIAMRLERVCKKDVEINGMFIPKGVVVMIPSYALHRDPKYWTEPEKFLPERFSKKNKDNIDPYIYTPFGSGPRNCIGMRFALMNMKLALIRVLQNFSFKPCKETQIPLKLSLGGLLQPEKPVVLKVESRDGTVSGA,Km,8.4 ± 1.7 µM
same,kcat,0.167 ± 0.0117 s⁻¹
same,kcat/Km,19800 ± 2170 M⁻¹ s⁻¹
